To fix the notation:
B1: LINE1-mini (parent)
chain: GGCAGAGCUCAACACAGCGUGGCAAAGUGGCUGUGGCUAGACUGCC

The source gives no read counts; variants with many changes may rest on few reads.

The data set covers variants of B1. Put plainly: self-cleavage, relative activity (ratio to wild type); higher = more cleavage; in vitro, sequencing; the parent is a self-cleaving ribozyme.
Regarding GGCAGAGCUCAACACAGCGUGGCAAAAUGGCUGUGGUUAGAUUGCC [G27A C37U C42U], the self-cleavage came to 0.02. Take GGCAGAGCUCAACACAGCGUGGCAAUGUGGAUGUGGGUAGACUGCC [A26U C31A C37G]: the self-cleavage is 0.03. On to GGCAGAGCUCAACACAGCGUGGCAUAGUGGCUUUGUCUAGACUGCC [A25U G33U G36U], for which the self-cleavage is 0.04.

Take GGCAGAGCUCAACACAGCGUGGCAACGUGGAUAUGGUUAGACUGCC [A26C C31A G33A C37U]: the self-cleavage worked out at 0.02. Turning to GGCAGAGCUCAACACAGCGUGGCAACGUGGAUUUGGCAAGACUGGC [A26C C31A G33U U38A C45G], the self-cleavage is 0.02. As to GGCAGAGCUCAACACAGCGUGGCAACGCGGCUGUGGCUAGAUUGCC [A26C U28C C42U], the self-cleavage was determined as 0.72. As for GGCAGAGCUCAACACAGCGUGGCAAAAUGCCAGUGGCUACACUGCC [G27A G30C U32A G40C], the self-cleavage was 0.03. As for GGCAGAGCUCAACACAGCGUGGCAUAGUGGCAGCGGCUAGACUGCC [A25U U32A U34C], the figure is 0.03; as for GGCAGAGCUCAACACAGCGUGGCAAAAUGACUGUGGCUAGAGUGCC [G27A G30A C42G], 0.01; as for GGCAGAGCUCAACACAGCGUGGCAAUGUGGCUGGGGCUAGCCUGCG [A26U U34G A41C C46G], 0.01. On to GGCAGAGCUCAACACAGCGUGGCAAGGUGGCUGUGGUUAGACUACC [A26G C37U G44A], for which the self-cleavage was 0.06. In the case of GGCAGAGCUCAACACAGCGUGGCAAAAUGGCAGUGGCUAGACUACC [G27A U32A G44A], the self-cleavage was found to be 0.09. In the case of GGCAGAGCUCAACACAGCGUGGCAACGUGGCUUUGGCUAGAUUGCC [A26C G33U C42U], the self-cleavage is 0.09.

Regarding GGCAGAGCUCAACACAGCGUGGCAUAGUGGCUGUGGCGAUACAGCC [A25U U38G G40U U43A], the self-cleavage amounted to 0.06.

Turning to GGCAGAGCUCAACACAGCGUGGCAAGGUCUCUGAGGCUGGACUGCC [A26G G29C G30U U34A A39G], the self-cleavage stood at 0.02. With GGCAGAGCUCAACACAGCGUGGCAACGUUGCUGUGGCUAGAGUGCC [A26C G29U C42G], the self-cleavage amounted to 0.03. Consider GGCAGAGCUCAACACAGCGUGGCAUAGUGGCUGUGGAUAGACUUCC [A25U C37A G44U], for which the self-cleavage stood at 0.03.

With GGCAGAGCUCAACACAGCGUGGCAAUGUGGCUGUCGCUAGCCUGCC [A26U G35C A41C], the self-cleavage was 0.03. As for GGCAGAGCUCAACACAGCGUGGCAACGUGGCUGUGGCUAUACAGGC [A26C G40U U43A C45G], the figure is 0.03; as for GGCAGAGCUCAACACAGCGUGGCAUAGUGUCUGUGGCUAGCCUGCC [A25U G30U A41C], 0.04.

For GGCAGAGCUCAACACAGCGUGGCAAAAUUGCUGUGGCUAGACUGCG [G27A G29U C46G], the self-cleavage turned out to be 0.5. With GGCAGAGCUCAACACAGCGUGGCAAUAUGGCUGUGGCUAGACUGGC [A26U G27A C45G] the figure was 0.14.

In the case of GGCAGAGCUCAACACAGCGUGGCAAGGUAGCUGUAGCUAGACUGCC [A26G G29A G35A], the self-cleavage amounted to 0.11. In the case of GGCAGAGCUCAACACAGCGUGGCAUAUUGGCUGAGCCUUGACUGCC [A25U G27U U34A G36C A39U], the self-cleavage came to 0.09. On to GGCAGAGCUCAACACAGCGUGGCAUAGUGGCCGGGGCUAGCCUGCC [A25U U32C U34G A41C], for which the self-cleavage was 0.02. With GGCAGAGCUCAACACAGCGUGGCAAGGUGGGAGUGGCUAGACUGCC [A26G C31G U32A] the figure was 0.06; with GGCAGAGCUCAACACAGCGUGGCAAUGUGGCUGUGGCUAUACUGCU [A26U G40U C46U], 0.05; with GGCAGAGCUCAACACAGCGUGGCAAUGAGGCUGUGACUAGACUGCC [A26U U28A G36A], 0.36.

For GGCAGAGCUCAACACAGCGUGGCAAUGUGGCUUUGGCUACACUGCC [A26U G33U G40C], the self-cleavage is 0.02. For the variant GGCAGAGCUCAACACAGCGUGGCAAUUUGGCUGUGGAUAGACUGCC [A26U G27U C37A], the self-cleavage came out at 0.09. As for GGCAGAGCUCAACACAGCGUGGCAAAAUGGGUCUGGCUAGACUGCC [G27A C31G G33C], the self-cleavage came out at 0.03. With GGCAGAGCUCAACACAGCGUGGCAACGUGGCAGGGGCUAGACUGCC [A26C U32A U34G] the figure was 0.01; with GGCAGAGCUCAACACAGCGUGGCAUAGUGGCUGUGUCAAGAUUGCC [A25U G36U U38A C42U], 0.03. In the case of GGCAGAGCUCAACACAGCGUGGCAAUGUGGUUGUGGCUACACUGCC [A26U C31U G40C], the self-cleavage is 0.02.

On to GGCAGAGCUCAACACAGCGUGGCAACGUGACUGUGGCUAGAGUGCC [A26C G30A C42G], for which the self-cleavage is 0. For the variant GGCAGAGCUCAACACAGCGUGGCAACGUGACUGUGGCUAGACUUCC [A26C G30A G44U], the self-cleavage was determined as 0.03. With GGCAGAGCUCAACACAGCGUGGCAAAAUGGCUGUGCCUAGACCGCC [G27A G36C U43C], the self-cleavage was 0.28. As to GGCAGAGCUCAACACAGCGUGGCAAGGGGGCUGUGGCUAGACUGGC [A26G U28G C45G], the self-cleavage was determined as 0.11. GGCAGAGCUCAACACAGCGUGGCAACCUGGUUGUGGUUAGACUGCC [A26C G27C C31U C37U]: the self-cleavage was 0.03. On to GGCAGAGCUCAACACAGCGUGGCAUAGUGGCUGAGGCUAGAGUGCC [A25U U34A C42G], for which the self-cleavage came to 0.07. With GGCAGAGCUCAACACAGCGUGGCAACGUGGCUGUAGCUAGACUGAU [A26C G35A C45A C46U], the self-cleavage worked out at 0.05. With GGCAGAGCUCAACACAGCGUGGCAAGGUGGCUGUAGCUAAGCUGCC [A26G G35A G40A A41G] the figure was 0.02.

Consider GGCAGAGCUCAACACAGCGUGGCAAGGUGGCUGGUGCUAGACUGCC [A26G U34G G35U], for which the self-cleavage stood at 0.02. As to GGCAGAGCUCAACACAGCGUGGCAAGGUGGCUGUGGCUAGAGAGCC [A26G C42G U43A], the self-cleavage was 0.01. Consider GGCAGAGCUCAACACAGCGUGGCAUAAUGGCUGUCGCUAGACUGCG [A25U G27A G35C C46G], for which the self-cleavage came to 0.03. Turning to GGCAGAGCUCAACACAGCGUGGCAAAAUAGCUGUGGCUAGAUUACC [G27A G29A C42U G44A], the self-cleavage turned out to be 0.15. As for GGCAGAGCUCAACACAGCGUGGCAACGUGCCUGUGUGUAGACUGCC [A26C G30C G36U C37G], the self-cleavage stood at 0.01.

Consider GGCAGAGCUCAACACAGCGUGGCAAAAUUUCUGUGGCUAGCCUGCC [G27A G29U G30U A41C], for which the self-cleavage was determined as 0.09. For GGCAGAGCUCAACACAGCGUGGCAAUGUAGCUAUGGCUAGACUGCC [A26U G29A G33A], the self-cleavage is 0.01. With GGCAGAGCUCAACACAGCGUGGCAAAAUCGCUCUGGCUAGACUGCC [G27A G29C G33C], the self-cleavage came out at 0.1. For the variant GGCAGAGCUCAACACAGCGUGGCAAAAUGGCUGUGGGUAGACUACC [G27A C37G G44A], the self-cleavage was determined as 0.07. As to GGCAGAGCUCAACACAGCGUGGCAACUUGGCUUUGUCUAGACUGCC [A26C G27U G33U G36U], the self-cleavage is 0.02.

Consider GGCAGAGCUCAACACAGCGUGGCAACGCGGCUGUGGCAAGACUGCC [A26C U28C U38A], for which the self-cleavage turned out to be 0.03. With GGCAGAGCUCAACACAGCGUGGCAACGAGGCUGUGGCUAGAAUGCU [A26C U28A C42A C46U] the figure was 0.15; with GGCAGAGCUCAACACAGCGUGGCAAUGUGGUUGUGGCUAGAAUUCC [A26U C31U C42A G44U], 0.07. GGCAGAGCUCAACACAGCGUGGCAAGGUCGCUGUGGCUAGCCUGCC [A26G G29C A41C]: the self-cleavage came to 0.03.

Values taken from the RNAGym collection of RNA variant scans (doi:10.7554/elife.90254).
